Data on three molecules can be found in patent US20250145697A1 (WASHINGTON UNIVERSITY, published 2025).

By UniProt entry, the sequences of proteins in these tests, tags left out. Where a name states a change or a piece, a line headed by the entry shows the natural chain unless it says otherwise. Chains listed by the source or under a name are the forms on record and can include a tag or linker. Residues count along the entry.
human ApoE in brain tissue of 5XFAD APP transgenic mice expressing different human ApoE isoforms (P02649, residues 19-317): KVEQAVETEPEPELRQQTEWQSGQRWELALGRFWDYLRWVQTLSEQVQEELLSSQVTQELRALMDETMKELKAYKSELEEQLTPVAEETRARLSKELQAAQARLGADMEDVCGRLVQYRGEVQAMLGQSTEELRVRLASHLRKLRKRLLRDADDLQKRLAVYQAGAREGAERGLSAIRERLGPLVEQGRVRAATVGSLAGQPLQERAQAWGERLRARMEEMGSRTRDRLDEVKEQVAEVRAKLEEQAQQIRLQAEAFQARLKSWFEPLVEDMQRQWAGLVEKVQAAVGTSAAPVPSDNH
ApoE derived from human plasma lipoprotein (P02649, form named): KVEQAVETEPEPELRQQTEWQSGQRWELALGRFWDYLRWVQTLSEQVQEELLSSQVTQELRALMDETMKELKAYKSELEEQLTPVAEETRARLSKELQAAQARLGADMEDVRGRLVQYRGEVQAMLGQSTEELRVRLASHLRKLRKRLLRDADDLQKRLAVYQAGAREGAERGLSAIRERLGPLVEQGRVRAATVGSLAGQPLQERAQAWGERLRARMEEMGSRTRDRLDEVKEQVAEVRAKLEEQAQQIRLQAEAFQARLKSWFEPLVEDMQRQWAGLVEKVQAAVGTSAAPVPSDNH
recombinant alipidated human ApoE2 (P02649, form named): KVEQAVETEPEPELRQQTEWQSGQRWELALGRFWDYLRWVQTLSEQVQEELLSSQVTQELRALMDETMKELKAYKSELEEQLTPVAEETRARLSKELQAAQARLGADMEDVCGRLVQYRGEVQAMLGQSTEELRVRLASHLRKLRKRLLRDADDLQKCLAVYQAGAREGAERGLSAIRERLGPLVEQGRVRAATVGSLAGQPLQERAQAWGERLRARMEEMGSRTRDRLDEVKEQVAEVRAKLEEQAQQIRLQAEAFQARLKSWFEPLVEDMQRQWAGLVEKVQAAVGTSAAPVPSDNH

Assay [1] has as its target ApoE derived from human plasma lipoprotein (human) (UniProt P02649). Nature of the assay: ELISA on coated human plasma (pooled E4+ plasma, 1:100), anti-mouse IgG-HRP, OD450. Background: An ELISA detects its analyte on a solid surface through an enzyme-linked reagent.
The target is the same in assay [2]. Nature of the assay: ELISA on coated human plasma (diluted 100x).
Assay [3] has the same target. Nature of the assay: ELISA on coated human plasma.
The target of assay [4] is human ApoE in brain tissue of 5XFAD APP transgenic mice expressing different human ApoE isoforms (human) (UniProt P02649). Kind of assay: staining of 5XFAD brain tissue, biotinylated antibody.
Assay [5] addresses T1, recombinant alipidated human ApoE2 (human, UniProt P02649 19-317).
T1 construct: mature; full length recombinant protein made in E. coli or bought
Kind of assay: direct ELISA on coated recombinant alipidated ApoE (0.5 ug/ml); direct ELISA, plate coated with recombinant alipidated ApoE2 (0.5 µg/ml), anti-mouse IgG-HRP detection.

These are yes or no findings as the source states them, for the method shown. Some entries that bind do so weakly or less than the wild type.

B1: HJ154 (antibody, V domains shown)
VH: QVQLQQPGTEFVMSGASVMLSCKASGYIFTNYWLHWVKQRPGHGLEWIGEIDPSDSYSICNDNFKGKSTLTVDKSSSTAYMQLSSLTSEDSAVYYCAGSLGRVGLAYWGQGTLVTVST
VL: QIVLTQSPAIMSASPGEKVTMSCSASSSVSNMYWYQQKPGSSPKSWIYRTSNLASGVPARFSGSGSGTSYSLTISNMEAEDAATYYCQHYQNYPLTFGAGTKLELKR
notes: murine monoclonal antibody from hybridoma; also called HJ154B (biotinylated)
Consider B1, for which the binding entry in assay [1], in assay [2], in assay [3] and in assay [4] was “binds” throughout.

B2: HJ153 (antibody, V domains shown)
VH: QVQLQQPGAELVKPGASVKLSCKASGYTFTSYWMHWVKQRPGRGLEWIGEIDPSDGFTYNNQNFKDKSTLTVDRSSGTAYLQLSSLTSEDSAVYYCAGSLGRIGLAYWGHGTLVTVSA
VL: QIVLTQSPAIMSASPGEKVTISCSASSSVTYMYWYQQKPGASPKSWIYRTSNLASGVPARFSGSGSGTSYSLTISSMEAEDAATYYCQQFQSYPLTFGAGTKLELKR
notes: murine monoclonal antibody from hybridoma; also called HJ153B (biotinylated)
As for B2, the binding entry in assay [4] was “binds”.

B3: HJ155 (antibody, V domains shown)
VH: RVQLQQSGPGLVKPGASVKISCKASGYTFTDYYINWVRQRPGQGLEWIGWIFPGSGITYYNEKFKGKATLTVDRSSSTAYMLLSSLTSEDSAVYFCARYAYGSPFAYWGQGTLVTVSA
VL: DVLMTQTPLSLPVSLGDQASISCRSSQSIVHSNGNTYLEWYLQKPGQSPKLLIYKVSNRFSGVPDRFSGSGSGTDFTLKISRVEAEDLGVYYCFQGSHVPYTFGGGTKLEIKR
notes: murine monoclonal antibody from hybridoma; also called HJ155B (biotinylated)
Consider B3, for which the binding result in assay [5] was “no binding (tested: >1000 nM)”.
